Measured values published in publication PMC4336329 (PLoS ONE, 2015).
Among all 310,000 compounds or so, about 2,200 (0.71%) showed an effect of 50% or more. Effects have a minus sign here. The list shows a part of the results.

These compounds were tested against human ether-à-go-go-related gene (hERG) potassium channel (human, UniProt Q12809) (assay: primary screen, population patch clamp on CHO cells stably expressing hERG).
Chain of human ether-à-go-go-related gene (hERG) potassium channel (Q12809 whole entry, looked up): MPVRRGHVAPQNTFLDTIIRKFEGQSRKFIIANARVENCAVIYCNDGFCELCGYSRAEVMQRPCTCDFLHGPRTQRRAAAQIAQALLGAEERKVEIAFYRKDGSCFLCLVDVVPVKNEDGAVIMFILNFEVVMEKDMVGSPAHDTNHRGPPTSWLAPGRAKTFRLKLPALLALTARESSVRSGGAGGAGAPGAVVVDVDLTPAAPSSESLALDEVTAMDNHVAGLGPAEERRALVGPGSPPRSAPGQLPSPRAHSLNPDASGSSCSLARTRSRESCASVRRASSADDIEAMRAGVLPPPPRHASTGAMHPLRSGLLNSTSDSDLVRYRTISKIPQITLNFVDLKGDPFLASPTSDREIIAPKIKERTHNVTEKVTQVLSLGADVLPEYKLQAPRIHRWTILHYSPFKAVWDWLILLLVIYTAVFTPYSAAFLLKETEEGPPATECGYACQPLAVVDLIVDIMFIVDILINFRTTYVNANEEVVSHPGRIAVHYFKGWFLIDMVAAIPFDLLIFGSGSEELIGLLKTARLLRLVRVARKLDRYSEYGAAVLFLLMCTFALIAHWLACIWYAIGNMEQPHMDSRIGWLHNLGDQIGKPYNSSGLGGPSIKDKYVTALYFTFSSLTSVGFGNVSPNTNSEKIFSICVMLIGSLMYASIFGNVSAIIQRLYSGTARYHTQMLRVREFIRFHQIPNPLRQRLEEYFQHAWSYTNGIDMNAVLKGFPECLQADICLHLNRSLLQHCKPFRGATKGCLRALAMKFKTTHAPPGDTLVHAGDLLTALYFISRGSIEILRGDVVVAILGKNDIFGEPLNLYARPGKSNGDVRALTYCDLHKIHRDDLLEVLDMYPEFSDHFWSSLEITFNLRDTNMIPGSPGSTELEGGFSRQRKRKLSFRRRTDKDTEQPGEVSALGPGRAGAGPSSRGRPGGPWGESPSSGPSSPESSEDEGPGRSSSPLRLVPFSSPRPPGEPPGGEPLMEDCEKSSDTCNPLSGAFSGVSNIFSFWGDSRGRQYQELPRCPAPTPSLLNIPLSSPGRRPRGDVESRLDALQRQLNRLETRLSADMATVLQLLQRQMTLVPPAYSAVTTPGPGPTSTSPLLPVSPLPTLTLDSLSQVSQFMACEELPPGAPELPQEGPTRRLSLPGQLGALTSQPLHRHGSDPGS

| SMILES | hERG current change (%, negative = inhibition) at 1uM |
| --- | --- |
| Cc1ccc(OCCOCCn2cnc3ccccc3c2=O)c([N+](=O)[O-])c1.O=C(O)C(=O)O | -6.31% |
| Cn1cc(CN2CCC[C@H]2CO)c(-c2cccc(Cl)c2)n1 | 1.6% |
| CN(C)S(=O)(=O)c1ccc(C(=O)NCC(=O)N/N=C/c2ccco2)cc1 | 13.4% |
| O=C(c1ccc2ccccc2n1)N1CCN(c2ccccc2O)CC1 | 4.36% |
| Cc1cc(S(=O)(=O)Nc2ccc(C(=O)NCCCN3CCOCC3)cc2)ccc1F | 19.8% |
| CCOc1cccc(C(=O)Nc2nccs2)c1 | 6.21% |
| C/C(=N\NC(=S)Nc1ccccc1C)c1cc2ccccc2o1 | 10% |
| CCCCC(=O)NC1(C(F)(F)F)NC(=O)N(Cc2ccccc2)C1=O (stereo not shown) | 7.06% |
| CC(=O)c1c(Nc2ccc3c(c2)OCCO3)oc(C)cc1=O | 6.03% |
| COC(=O)c1ccc(C)c(NC(=O)CCSc2ccc(Cl)cc2)c1 | 10.3% |
| CN=C(Nc1ccc(Cl)cc1)c1cccc(C(F)(F)F)c1 | 16.8% |
| Cc1ccc(S(=O)(=O)NNC(=O)c2ccc(O)cc2)cc1 | 9.36% |
| CN1Cc2c(N3CCOCC3)nc(SCc3ccccc3)c(C#N)c2CC1(C)C | 14.1% |
| Cc1ccc(C)c2[nH]c(=O)c(C(c3nnnn3Cc3ccccc3)N3CCc4ccccc4C3)cc12 (stereo not shown) | -0.939% |
| Cc1cc(C(=O)NCC(=O)OC(C)C(=O)N2CCOCC2)ccc1[N+](=O)[O-] (stereo not shown) | 4.55% |
| O=C(CSc1nc2ccsc2c(=O)n1Cc1ccccc1)NCC1CCCO1 (stereo not shown) | -2.18% |
| COc1ccccc1NC(=O)N1CCCC(C(=O)Nc2cccc(C)c2C)C1 (stereo not shown) | 6.02% |
| O=C(Cn1nc(C(=O)O)c2ccccc2c1=O)Nc1ccccc1C(F)(F)F | -3.12% |
| COC(=O)C(Cc1cnc(Cl)s1)(C(=O)OC)c1ccc([N+](=O)[O-])cc1[N+](=O)[O-] | -12.3% |
| O=C(Nc1cccc(Cl)c1)c1csc(-c2ccccc2)n1 | 16.3% |
| CC(C)CC(=O)NC(=S)Nc1ccc(S(=O)(=O)Nc2nccs2)cc1 | 14.8% |
| COc1ccc2ccccc2c1/C=N\NC(=O)c1cccnc1 | 9.21% |

| SMILES | hERG current change (%, negative = inhibition) at 1uM |
| --- | --- |
| CC(Sc1nnc(Cc2cccs2)n1C1CCCCC1)C(N)=O (stereo not shown) | 8.88% |
| N#C/C(=C(/O)COC(=O)c1cccnc1Cl)c1nc2ccccc2[nH]1 | 17.7% |
| CC(C)CNC(=O)C1c2ccccc2Oc2ccccc21 | 1.95% |
| CN(C)C(=O)Oc1ccc(-c2nnco2)cc1 | 8.91% |
| Cc1cccc(NC(=O)NCC(F)(F)F)n1 | 10.2% |
| O=C(Nc1ccccc1C(=O)N1CCOCC1)C1CC(=O)N(C2CCCC2)C1 (stereo not shown) | 12.4% |
| CCC[N+]12CCC(CC1)C(=C(c1ccccc1)c1ccccc1)C2.[Br-] | 3.15% |
| COc1ccc(CN(C(=O)c2ccco2)c2ccc(C)cc2)cc1OC | 10.6% |
| COC(=O)C1CC(O)CN1C(=O)Nc1cccc(C(F)(F)F)c1 (stereo not shown) | 13.6% |
| CC(C)N(CCn1cnc2c([nH]c3ccccc32)c1=O)C(C)C | -33.7% |
| CCN1CCN(c2ccc(NC(=O)c3cnccn3)cc2)CC1 | 2.63% |
| COc1ccc(C2/C=C\CN(C(=O)Nc3ccc(C(F)(F)F)cc3)CC(=O)N2Cc2ccc(F)cc2)cc1 (stereo not shown) | 9.63% |
| CCn1c(CSc2nc(C)cc(C)n2)nnc1SCC(=O)Nc1ccccc1 | 3.49% |
| CC(=O)c1cccc(NC(=O)CN2C(=O)NC3(CCCCCCC3)C2=O)c1 | -1.52% |
| CC(=O)C1=C(c2ccccc2)NC(=O)NC1c1ccccc1OCC(=O)Nc1ccccc1 (stereo not shown) | 4.54% |
| Cn1c(COc2ccccc2)nc2ccccc21 | 13.1% |
| COc1ccc(-c2cc(C(=O)Nc3c(F)cc(F)cc3Br)no2)cc1 | 10.8% |
| O=C(COc1ccc2ccccc2c1)Nc1ccc(Br)cc1C(=O)O | 0.611% |
| Cc1ccc(C)c(NC(=S)N=Nc2c(O)n(C)c3ccc(S(=O)(=O)N4CCOCC4)cc23)c1 | 13.2% |
| CN(CC(=O)Nc1cccc(F)c1)C(=O)CNS(=O)(=O)c1ccc(N(C)C)c([N+](=O)[O-])c1 | 9.49% |
| COC(=O)c1ccc2c(=O)n(CC3CCCO3)c(SCC(=O)Nc3ccccc3OC)nc2c1 (stereo not shown) | -1.64% |
